# Measurements from the supplement of paper PMC8728848.
# The other results are listed elsewhere or left out.
# Columns and labels:
# Assay in all cases: glycan array binding signal (z-score within array); higher = stronger binding
# Conditions in all cases: glycan notation: IUPAC condensed, linker removed
# Neu5Ac(a2-3)GalNAc = target: Neu5Ac(a2-3)GalNAc
# Procedure, shortened: (§1)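 The Consortium for Functional Glycomics database supplied 3228 glycan arrays, of which those lacking an available protein sequence were dropped. The binding signal, a within-array Z-score, was averaged across arrays of the same protein sequence and across linkers. Negative scores can be read as non-binding.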
# [1] = target: Neu5Ac(a2-3)GalNAc(b1-4)GlcNAc
# Procedure, shortened: as §1
# [2] = target: Neu5Ac(a2-3)[GalNAc(b1-4)]Gal(b1-4)Glc
# Procedure, shortened: as §1
# [3] = target: Neu5Ac(a2-3)[GalNAc(b1-4)]Gal(b1-4)GlcNAc
# Procedure, shortened: as §1
# [4] = target: Neu5Ac(a2-3)[GalNAc(b1-4)]Gal(b1-4)GlcNAc(b1-3)GalNAc
# Procedure, shortened: as §1
# [5] = target: Neu5Ac(a2-3)[Neu5Ac(a2-6)]GalNAc
# Procedure, shortened: as §1
# Neu5Ac(a2-6)Gal = target: Neu5Ac(a2-6)Gal
# Procedure, shortened: as §1
# [6] = target: Neu5Ac(a2-6)Gal(b1-3)GlcNAc(b1-3)[Gal(b1-4)GlcNAc(b1-6)]Gal(b1-4)Glc
# Procedure, shortened: as §1
# Neu5Ac(a2-6)Gal(b1-4)Glc = target: Neu5Ac(a2-6)Gal(b1-4)Glc
# Procedure, shortened: as §1
# [7] = target: Neu5Ac(a2-6)Gal(b1-4)GlcNAc
# Procedure, shortened: as §1
# [8] = target: Neu5Ac(a2-6)Gal(b1-4)GlcNAc(b1-2)Man
# Procedure, shortened: as §1
# [9] = target: Neu5Ac(a2-6)Gal(b1-4)GlcNAc(b1-2)Man(a1-3)Man(b1-4)GlcNAc(b1-4)GlcNAc
# Procedure, shortened: as §1
# [10] = target: Neu5Ac(a2-6)Gal(b1-4)GlcNAc(b1-2)Man(a1-3)[Gal(b1-4)GlcNAc(b1-2)Man(a1-6)]Man(b1-4)GlcNAc(b1-4)GlcNAc
# Procedure, shortened: as §1
# [11] = target: Neu5Ac(a2-6)Gal(b1-4)GlcNAc(b1-2)Man(a1-3)[GlcNAc(b1-2)Man(a1-6)]Man(b1-4)GlcNAc(b1-4)GlcNAc
# Procedure, shortened: as §1
# [12] = target: Neu5Ac(a2-6)Gal(b1-4)GlcNAc(b1-2)Man(a1-3)[GlcNAc(b1-4)][Neu5Ac(a2-6)Gal(b1-4)GlcNAc(b1-2)Man(a1-6)]Man(b1-4)GlcNAc(b1-4)GlcNAc
# Procedure, shortened: as §1
# [13] = target: Neu5Ac(a2-6)Gal(b1-4)GlcNAc(b1-2)Man(a1-3)[Man(a1-6)]Man(b1-4)GlcNAc(b1-4)GlcNAc
# Procedure, shortened: as §1
# [14] = target: Neu5Ac(a2-6)Gal(b1-4)GlcNAc(b1-2)Man(a1-3)[Neu5Ac(a2-3)Gal(b1-4)GlcNAc(b1-2)Man(a1-6)]Man(b1-4)GlcNAc(b1-4)GlcNAc
# Procedure, shortened: as §1
# [15] = target: Neu5Ac(a2-6)Gal(b1-4)GlcNAc(b1-2)Man(a1-3)[Neu5Ac(a2-6)Gal(b1-4)GlcNAc(b1-2)Man(a1-6)]Man(b1-4)GlcNAc(b1-4)GlcNAc
# Procedure, shortened: as §1
# [16] = target: Neu5Ac(a2-6)Gal(b1-4)GlcNAc(b1-2)Man(a1-3)[Neu5Ac(a2-6)Gal(b1-4)GlcNAc(b1-2)Man(a1-6)]Man(b1-4)GlcNAc(b1-4)[Fuc(a1-6)]GlcNAc
# Procedure, shortened: as §1
# [17] = target: Neu5Ac(a2-6)Gal(b1-4)GlcNAc(b1-2)Man(a1-6)Man(b1-4)GlcNAc(b1-4)GlcNAc
# Procedure, shortened: as §1
# [18] = target: Neu5Ac(a2-6)Gal(b1-4)GlcNAc(b1-2)Man(a1-6)[Gal(b1-4)GlcNAc(b1-2)Man(a1-3)]Man(b1-4)GlcNAc(b1-4)GlcNAc
# Procedure, shortened: as §1
# [19] = target: Neu5Ac(a2-6)Gal(b1-4)GlcNAc(b1-2)Man(a1-6)[GlcNAc(b1-2)Man(a1-3)]Man(b1-4)GlcNAc(b1-4)GlcNAc
# Procedure, shortened: as §1
# [20] = target: Neu5Ac(a2-6)Gal(b1-4)GlcNAc(b1-2)Man(a1-6)[Man(a1-3)]Man(b1-4)GlcNAc(b1-4)GlcNAc
# Procedure, shortened: as §1
# [21] = target: Neu5Ac(a2-6)Gal(b1-4)GlcNAc(b1-2)[Neu5Ac(a2-6)Gal(b1-4)GlcNAc(b1-4)]Man(a1-3)[GlcNAc(b1-4)][Neu5Ac(a2-6)Gal(b1-4)GlcNAc(b1-2)[Neu5Ac(a2-6)Gal(b1-4)GlcNAc(b1-6)]Man(a1-6)]Man(b1-4)GlcNAc(b1-4)GlcNAc
# Procedure, shortened: as §1
# [22] = target: Neu5Ac(a2-6)Gal(b1-4)GlcNAc(b1-2)[Neu5Ac(a2-6)Gal(b1-4)GlcNAc(b1-4)]Man(a1-3)[GlcNAc(b1-4)][Neu5Ac(a2-6)Gal(b1-4)GlcNAc(b1-4)Man(a1-6)]Man(b1-4)GlcNAc(b1-4)GlcNAc
# Procedure, shortened: as §1
# [23] = target: Neu5Ac(a2-6)Gal(b1-4)GlcNAc(b1-2)[Neu5Ac(a2-6)Gal(b1-4)GlcNAc(b1-6)]Man(a1-6)[Neu5Ac(a2-6)Gal(b1-4)GlcNAc(b1-2)Man(a1-3)][GlcNAc(b1-4)]Man(b1-4)GlcNAc(b1-4)GlcNAc
# Procedure, shortened: as §1
# [24] = target: Neu5Ac(a2-6)Gal(b1-4)GlcNAc(b1-3)Gal(b1-3)GlcNAc
# Procedure, shortened: as §1
# [25] = target: Neu5Ac(a2-6)Gal(b1-4)GlcNAc(b1-3)Gal(b1-4)GlcNAc
# Procedure, shortened: as §1
# [26] = target: Neu5Ac(a2-6)Gal(b1-4)GlcNAc(b1-3)Gal(b1-4)GlcNAc(b1-2)Man(a1-3)[Neu5Ac(a2-6)Gal(b1-4)GlcNAc(b1-3)Gal(b1-4)GlcNAc(b1-2)Man(a1-6)]GalNAc
# Procedure, shortened: as §1
# [27] = target: Neu5Ac(a2-6)Gal(b1-4)GlcNAc(b1-3)Gal(b1-4)GlcNAc(b1-3)Gal(b1-4)GlcNAc
# Procedure, shortened: as §1
# [28] = target: Neu5Ac(a2-6)Gal(b1-4)GlcNAc(b1-3)Gal(b1-4)GlcNAc(b1-3)Gal(b1-4)GlcNAc(b1-2)Man(a1-3)[Neu5Ac(a2-6)Gal(b1-4)GlcNAc(b1-3)Gal(b1-4)GlcNAc(b1-3)Gal(b1-4)GlcNAc(b1-2)Man(a1-6)]GalNAc
# Procedure, shortened: as §1
# [29] = target: Neu5Ac(a2-6)Gal(b1-4)GlcNAc(b1-3)Gal(b1-4)GlcNAc(b1-3)GalNAc
# Procedure, shortened: as §1
# [30] = target: Neu5Ac(a2-6)Gal(b1-4)GlcNAc(b1-3)Gal(b1-4)GlcNAc(b1-3)[Neu5Ac(a2-6)Gal(b1-4)GlcNAc(b1-3)Gal(b1-4)GlcNAc(b1-6)]GalNAc
# Procedure, shortened: as §1
# [31] = target: Neu5Ac(a2-6)Gal(b1-4)GlcNAc(b1-3)Gal(b1-4)GlcNAc(b1-6)[Gal(b1-3)]GalNAc
# Procedure, shortened: as §1
# [32] = target: Neu5Ac(a2-6)Gal(b1-4)GlcNAc(b1-3)Gal(b1-4)[Fuc(a1-3)]GlcNAc(b1-3)Gal(b1-4)[Fuc(a1-3)]GlcNAc
# Procedure, shortened: as §1
# [33] = target: Neu5Ac(a2-6)Gal(b1-4)GlcNAc(b1-3)GalNAc
# Procedure, shortened: as §1
# [34] = target: Neu5Ac(a2-6)Gal(b1-4)GlcNAc(b1-3)[Neu5Ac(a2-6)Gal(b1-4)GlcNAc(b1-6)]GalNAc
# Procedure, shortened: as §1
# [35] = target: Neu5Ac(a2-6)Gal(b1-4)GlcNAc(b1-6)GalNAc
# Procedure, shortened: as §1
# [36] = target: Neu5Ac(a2-6)Gal(b1-4)GlcNAc(b1-6)[Gal(b1-3)GlcNAc(b1-3)]Gal(b1-4)Glc
# Procedure, shortened: as §1
binder,measurement,setting,value
WGA (Triticum vulgare) (protein) QRCGEQGSNMECPNNLCCSQYGYCGMGGDYCGKGCQNGACWTSKRCGSQAGGATCPNNHCCSQYGHCGFGAEYCGAGCQGGPCRADIKCGSQSGGKLCPNNLCCSQWGFCGLGSEFCGGGCQSGACSTDKPCGKDAGGRVCTNNYCCSKWGSCGIGPGYCGAGCQSGGCDAVFAGAITANSTLLAE,glycan array binding signal (z-score),Neu5Ac(a2-3)GalNAc,-0.398
same,glycan array binding signal (z-score),[1],-0.215
same,glycan array binding signal (z-score),[2],-0.373
same,glycan array binding signal (z-score),[3],-0.323
same,glycan array binding signal (z-score),[4],-0.103
same,glycan array binding signal (z-score),[5],-0.395
same,glycan array binding signal (z-score),Neu5Ac(a2-6)Gal,-0.352
same,glycan array binding signal (z-score),[6],-0.286
same,glycan array binding signal (z-score),Neu5Ac(a2-6)Gal(b1-4)Glc,-0.349
same,glycan array binding signal (z-score),[7],-0.369
same,glycan array binding signal (z-score),[8],-0.356
same,glycan array binding signal (z-score),[9],0.384
same,glycan array binding signal (z-score),[10],-0.132
same,glycan array binding signal (z-score),[11],-0.3
same,glycan array binding signal (z-score),[12],-0.059
same,glycan array binding signal (z-score),[13],-0.26
same,glycan array binding signal (z-score),[14],0.02
same,glycan array binding signal (z-score),[15],0.238
same,glycan array binding signal (z-score),[16],-0.329
same,glycan array binding signal (z-score),[17],-0.344
same,glycan array binding signal (z-score),[18],-0.227
same,glycan array binding signal (z-score),[19],-0.173
same,glycan array binding signal (z-score),[20],-0.305
same,glycan array binding signal (z-score),[21],-0.366
same,glycan array binding signal (z-score),[22],-0.388
same,glycan array binding signal (z-score),[23],-0.288
same,glycan array binding signal (z-score),[24],-0.375
same,glycan array binding signal (z-score),[25],-0.02
same,glycan array binding signal (z-score),[26],-0.017
same,glycan array binding signal (z-score),[27],-0.134
same,glycan array binding signal (z-score),[28],0.117
same,glycan array binding signal (z-score),[29],-0.431
same,glycan array binding signal (z-score),[30],0.175
same,glycan array binding signal (z-score),[31],-0.248
same,glycan array binding signal (z-score),[32],-0.359
same,glycan array binding signal (z-score),[33],-0.363
same,glycan array binding signal (z-score),[34],-0.339
same,glycan array binding signal (z-score),[35],-0.307
same,glycan array binding signal (z-score),[36],-0.328
